Laboratory results: PubChem BioAssay AID1224863 (Southern Research Institute, 2016)
Several values for one entry are separate records, joined by “and”; a condition that tells them apart may be missing. Identical values can stand only once. Some of the results follow. The main result of the screen is listed elsewhere. These columns were measured beside it and carry no call.

Key:
[1] = total CFTR protein upregulators, primary screen, cell-based, HeLa F508del-CFTR, immunofluorescence, viability (AID 1224863); conditions: 24 h, stronger effect = higher value; min viability: measured here: HeLa viability, alamarBlue, dose 50, library dosed in µM unless noted; viability: measured here: primary viability 25 uM, at 25 µM, library dosed in µM unless noted;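 as to fold increase: total CFTR protein by anti-CFTR immunofluorescence in fixed cells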
[2] = target: Cystic fibrosis transmembrane conductance regulator (Homo sapiens) (UniProt P13569); assay: as above; conditions: 24 h, stronger effect = higher value; measured here: primary screen single dose 25 uM, at 25 µM, library dosed in µM unless noted
UniProt P13569, sequence (P13569 whole entry, looked up): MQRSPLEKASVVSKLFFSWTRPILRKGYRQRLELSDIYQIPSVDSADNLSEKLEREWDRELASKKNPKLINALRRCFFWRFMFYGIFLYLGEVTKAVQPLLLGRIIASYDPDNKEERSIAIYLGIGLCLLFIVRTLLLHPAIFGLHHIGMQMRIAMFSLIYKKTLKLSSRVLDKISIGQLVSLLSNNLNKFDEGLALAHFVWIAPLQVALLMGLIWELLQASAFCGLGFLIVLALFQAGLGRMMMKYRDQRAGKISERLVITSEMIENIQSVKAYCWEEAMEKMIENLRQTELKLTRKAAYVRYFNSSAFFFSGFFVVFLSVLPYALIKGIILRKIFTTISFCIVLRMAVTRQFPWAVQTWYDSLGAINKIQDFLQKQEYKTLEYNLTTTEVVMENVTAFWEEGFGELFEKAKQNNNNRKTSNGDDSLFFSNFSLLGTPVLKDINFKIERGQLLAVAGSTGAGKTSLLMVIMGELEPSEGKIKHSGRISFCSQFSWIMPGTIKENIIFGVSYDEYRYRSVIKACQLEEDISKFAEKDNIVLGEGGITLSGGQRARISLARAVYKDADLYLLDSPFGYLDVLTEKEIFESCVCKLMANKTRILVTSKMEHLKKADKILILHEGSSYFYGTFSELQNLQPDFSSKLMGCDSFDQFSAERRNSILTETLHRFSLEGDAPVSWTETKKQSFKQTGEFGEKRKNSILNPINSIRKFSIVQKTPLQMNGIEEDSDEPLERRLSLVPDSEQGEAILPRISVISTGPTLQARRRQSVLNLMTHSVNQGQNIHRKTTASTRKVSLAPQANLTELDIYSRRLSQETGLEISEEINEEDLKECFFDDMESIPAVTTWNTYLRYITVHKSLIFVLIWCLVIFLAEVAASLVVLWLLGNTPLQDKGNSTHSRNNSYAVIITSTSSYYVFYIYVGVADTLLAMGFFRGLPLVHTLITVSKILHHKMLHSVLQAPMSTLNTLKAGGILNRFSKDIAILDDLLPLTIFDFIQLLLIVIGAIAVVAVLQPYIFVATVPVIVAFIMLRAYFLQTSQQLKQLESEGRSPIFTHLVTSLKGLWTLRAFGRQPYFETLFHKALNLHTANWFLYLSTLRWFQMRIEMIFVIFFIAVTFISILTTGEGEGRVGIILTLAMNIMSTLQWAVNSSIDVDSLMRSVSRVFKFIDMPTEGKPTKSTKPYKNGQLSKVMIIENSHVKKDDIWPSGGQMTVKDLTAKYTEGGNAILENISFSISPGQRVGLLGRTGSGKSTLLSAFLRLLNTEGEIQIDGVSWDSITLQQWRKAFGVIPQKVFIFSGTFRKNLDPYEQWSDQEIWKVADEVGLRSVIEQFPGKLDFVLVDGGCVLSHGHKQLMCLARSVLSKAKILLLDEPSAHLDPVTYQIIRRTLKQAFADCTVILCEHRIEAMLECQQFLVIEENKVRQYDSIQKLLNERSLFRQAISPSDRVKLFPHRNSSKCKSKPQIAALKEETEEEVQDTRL

| Structure (SMILES) | min viability [1] | viability [1] | fold increase [2] |
| --- | --- | --- | --- |
| Cn1c(-c2c(N)n(Cc3cccnc3)c3nc(C#N)c(C#N)nc23)nc2ccccc21 | 63.7% [measured here: HeLa viability, alamarBlue, dose 10, library dosed in µg/mL] | 92% [measured here: primary viability 10 ug/mL, library dosed in µg/mL] | 4.43 [measured here: primary screen 10 ug/mL, library dosed in µg/mL] |
| N#Cc1ccc(CN2CCc3cc([N+](=O)[O-])ccc32)c(F)c1 | 87.6% [measured here: HeLa viability, alamarBlue, dose 0.039, library dosed in µg/mL] | 86% [measured here: primary viability 10 ug/mL, library dosed in µg/mL] | 1.53 [measured here: primary screen 10 ug/mL, library dosed in µg/mL] |
| CCN(CC)C(=S)SSC(=S)N(CC)CC | 69.2% | 107% and 85% and 82% | 1.42 and 1.6 and 2.01 |
| N#C/C(=C/c1cccs1)c1nc(-c2cccs2)no1 | 79% [measured here: HeLa viability, alamarBlue, dose 0.039, library dosed in µg/mL] | 95% [measured here: primary viability 10 ug/mL, library dosed in µg/mL] | 1.55 [measured here: primary screen 10 ug/mL, library dosed in µg/mL] |
| CCN(CC)CCOc1ccc2c(c1)C(=O)c1cc(OCCN(CC)CC)ccc1-2 | 52.3% | 73% | 3.61 |
| O=C(OCc1sc2ccccc2c1Cl)C1=NN(C2CCS(=O)(=O)C2)C(=O)CC1 (configuration not stated) | 65.6% [measured here: HeLa viability, alamarBlue, dose 0.16, library dosed in µg/mL] | 96% [measured here: primary viability 10 ug/mL, library dosed in µg/mL] | 1.7 [measured here: primary screen 10 ug/mL, library dosed in µg/mL] |
| COc1cc([C@@H]2c3cc4c(cc3C(O[C@@H]3O[C@@H]5CO[C@@H](c6cccs6)OC5[C@H](O)[C@H]3O)C3COC(=O)[C@@H]32)OCO4)cc(OC)c1O (some centres not stated) |  | 79% | 1.43 |
| CC(=O)S[C@@H]1CC2=CC(=O)CC[C@]2(C)[C@H]2CC[C@@]3(C)[C@@H](CC[C@@]34CCC(=O)O4)C12 (some centres not stated) | 61.5% [measured here: HeLa viability, alamarBlue, dose 0.09, library dosed in µM] | 99% | 1.84 |
| C=C[C@H]1CN2CC[C@H]1C[C@@H]2[C@H](O)c1ccnc2ccc(OC)cc12 |  | 93% | 1.06 |
| COC(=O)[C@H]1[C@H]2C[C@@H]3c4[nH]c5cc(OC)ccc5c4CCN3C[C@H]2C[C@@H](OC(=O)c2cc(OC)c(OC)c(OC)c2)[C@@H]1OC | 73.3% [measured here: HeLa viability, alamarBlue, dose 12.5, library dosed in µM] | 85% and 80% | 2.42 and 1.11 |
| CCN(CC)CCCC(C)Nc1c2ccc(Cl)cc2nc2ccc(OC)cc12 (configuration not stated) | 26.9% | 24% and 66% | 0.61 and 2.44 |
| Cc1cc(NC(=O)CCC2CCCCC2)n(C2CCS(=O)(=O)C2)n1 (configuration not stated) | 67.9% [measured here: HeLa viability, alamarBlue, dose 0.078, library dosed in µg/mL] | 92% [measured here: primary viability 10 ug/mL, library dosed in µg/mL] | 4.58 [measured here: primary screen 10 ug/mL, library dosed in µg/mL] |
| CC(C)C[C@H](NC(=O)[C@H](Cc1ccccc1)NC(=O)c1cnccn1)B(O)O | 76.8% [measured here: HeLa viability, alamarBlue, dose 0.78, library dosed in µM] | 64% | 3.65 |
| CC(=O)S[C@@H]1CC2=CC(=O)CC[C@]2(C)[C@H]2CC[C@@]3(C)[C@@H](CC[C@@]34CCC(=O)O4)[C@H]12 | 82.7% | 84% | 1.9 |
| N#Cc1c(/C=C/c2cccc(Cl)c2)cc(-c2ccc(Cl)cc2)n2c1nc1ccccc12 | 81.6% [measured here: HeLa viability, alamarBlue, dose 5, library dosed in µg/mL] | 91% [measured here: primary viability 10 ug/mL, library dosed in µg/mL] | 2.68 [measured here: primary screen 10 ug/mL, library dosed in µg/mL] |
| CCNC(=O)Cn1c(=O)/c(=C/c2sccc2C)s/c1=C\C(=O)C(C)(C)C | 80% [measured here: HeLa viability, alamarBlue, dose 5, library dosed in µg/mL] | 81% [measured here: primary viability 10 ug/mL, library dosed in µg/mL] | 2.04 [measured here: primary screen 10 ug/mL, library dosed in µg/mL] |
| CC[C@H](C)C(=O)O[C@H]1CCC=C2C=C[C@H](C)[C@H](CC[C@@H]3C[C@@H](O)CC(=O)O3)[C@H]21 | 83.8% [measured here: HeLa viability, alamarBlue, dose 25, library dosed in µM] | 82% | 1.56 |
| N#Cc1nc2c(S(=O)(=O)c3ccc(Cl)cc3)c(N)n(CCCN3CCOCC3)c2nc1C#N | 51.7% [measured here: HeLa viability, alamarBlue, dose 20, library dosed in µg/mL] | 77% [measured here: primary viability 10 ug/mL, library dosed in µg/mL] | 1.46 [measured here: primary screen 10 ug/mL, library dosed in µg/mL] |
